Measured values reported in paper PMC4336329 (PLoS ONE, 2015).
Among all 310,000 compounds or so, about 14,000 (4.5%) showed an effect of 50% or more. The effect is printed as a negative number. The list shows a part of the results.

These molecules were tested against human ether-à-go-go-related gene (hERG) potassium channel (human, UniProt Q12809) (assay: primary screen, population patch clamp on CHO cells stably expressing hERG).
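Also: peak tail current of the secondary pulse compared with the same well before compound.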

Sequence of human ether-à-go-go-related gene (hERG) potassium channel (Q12809 whole entry, looked up): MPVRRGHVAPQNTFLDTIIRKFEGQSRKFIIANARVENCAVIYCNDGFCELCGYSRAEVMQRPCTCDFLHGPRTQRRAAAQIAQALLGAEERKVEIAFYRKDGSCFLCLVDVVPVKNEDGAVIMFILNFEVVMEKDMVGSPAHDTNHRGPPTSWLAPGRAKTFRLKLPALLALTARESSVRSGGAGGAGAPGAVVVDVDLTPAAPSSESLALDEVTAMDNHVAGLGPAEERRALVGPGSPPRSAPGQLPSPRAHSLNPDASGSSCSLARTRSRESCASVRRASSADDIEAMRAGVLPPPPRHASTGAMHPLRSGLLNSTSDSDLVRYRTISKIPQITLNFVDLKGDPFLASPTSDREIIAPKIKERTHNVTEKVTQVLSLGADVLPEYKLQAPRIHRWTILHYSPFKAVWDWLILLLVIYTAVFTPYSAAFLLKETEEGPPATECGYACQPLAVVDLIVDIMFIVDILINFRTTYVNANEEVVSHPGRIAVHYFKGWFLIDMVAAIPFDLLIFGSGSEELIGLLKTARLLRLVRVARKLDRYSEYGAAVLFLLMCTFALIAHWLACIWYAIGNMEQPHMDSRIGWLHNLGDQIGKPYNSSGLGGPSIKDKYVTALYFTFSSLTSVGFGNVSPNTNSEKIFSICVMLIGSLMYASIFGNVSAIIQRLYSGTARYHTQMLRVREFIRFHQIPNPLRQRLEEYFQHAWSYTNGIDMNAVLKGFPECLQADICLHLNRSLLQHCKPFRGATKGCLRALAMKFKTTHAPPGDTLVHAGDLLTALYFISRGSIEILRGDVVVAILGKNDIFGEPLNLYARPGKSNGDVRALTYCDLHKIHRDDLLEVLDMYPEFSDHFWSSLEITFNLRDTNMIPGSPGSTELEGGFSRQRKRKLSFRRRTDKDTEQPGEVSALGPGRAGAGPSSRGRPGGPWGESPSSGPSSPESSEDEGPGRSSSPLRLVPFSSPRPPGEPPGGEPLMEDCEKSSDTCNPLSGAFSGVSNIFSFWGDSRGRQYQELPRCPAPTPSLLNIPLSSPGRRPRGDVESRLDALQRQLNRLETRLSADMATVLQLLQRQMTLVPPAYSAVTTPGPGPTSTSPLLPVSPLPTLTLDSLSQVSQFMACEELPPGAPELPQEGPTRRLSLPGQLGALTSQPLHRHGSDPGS

Structure (SMILES)	hERG current change (%, negative = inhibition) at 10uM
O=C(CSc1nnc(C2COc3ccccc3O2)o1)Nc1ccc(F)cc1Cl (stereo not shown)	-1.21%
O=C(Nc1ccnn1C1CCN(Cc2ccc(O)c(Cl)c2)CC1)C1CCCC1	-33%
COc1ccc(CCN(Cc2cccs2)S(=O)(=O)c2ccc(-n3cnnn3)cc2)cc1OC	-52.5%
c1ccc(OCc2nn3c(-c4cccnc4)nnc3s2)cc1	-29.5%
c1ccc(NC2=NCCN2CC2CCC2)cc1	-12.1%
Cc1ccc(S(=O)(=O)N2CCOCC2)cc1NC(=O)CNCc1cccnc1.O=C(O)C(=O)O	-7.98%
C/C(NC(=O)c1ccccc1)=C1/C(=O)CC2C1C2(C)C (stereo not shown)	2.15%
O=C(NCc1ccc(Cl)cc1)c1cccc(NC(=O)c2ccccc2)c1	-0.3%
Cc1ccsc1C(=O)C1CCCN(Cc2cnc(N(C)C)s2)C1 (stereo not shown)	-9.23%
Cc1ccc(-n2c(Cc3ccccc3)n[nH]c2=S)c(C)c1	11.7%
Cc1ccc(CCNC(=O)C2CCC(=O)N2C(C)C)cc1 (stereo not shown)	14.5%
Cc1noc(C)c1C(=O)Nc1ccc(F)c(F)c1	25.4%
CCN(CCn1cccn1)Cc1cn[nH]c1-c1ccc(-c2ccccc2)cc1	9.21%
Cc1ccc(Cn2nc(C)c(NC(=O)CSc3n[nH]c(C)c3[N+](=O)[O-])c2C)cc1	-11.3%
Cc1cc(OCCSc2nnc(-c3cccs3)n2C)ccc1Cl	-22.5%
Cc1ccc(OCC(=O)N/N=C\c2c(C)n(C)c3ccccc23)c([N+](=O)[O-])c1	12.8%
CCc1nn(C(C)C(=O)NCCc2ccc(OC)c(OC)c2)c(=O)c2cc3occc3n12 (stereo not shown)	-5.84%
Cc1cccc(OCC(=O)O/N=C(\N)Cc2cccs2)c1	8.58%
O=C(COC(=O)c1cnccn1)c1ccc(C2CCCCC2)cc1	2.8%
Cc1ccc(OCCCCn2ccnc2C)c(C)c1.O=C(O)C(=O)O	-64.1%
CCOC(=O)Cc1csc(NC(=O)c2cccc(Cl)c2)n1	-13%
COC(=O)c1cccc(C(=O)N2CCCC(C(=O)c3ccccc3OC)C2)c1 (stereo not shown)	-20%

Structure (SMILES)	hERG current change (%, negative = inhibition) at 10uM
CCN(CC)C(=O)CN1C(=O)C2(OCC(C)(c3ccccc3)CO2)c2ccccc21 (stereo not shown)	-23.9%
CCN(CC)S(=O)(=O)c1ccc(Cl)c(NC(=O)c2ccc(C#N)cc2)c1	-28.4%
CC1CN(c2cc([N+](=O)[O-])ccc2Cl)CC(C)N1 (stereo not shown)	-22.4%
CCOc1cc(/C=C2/C(=O)N(c3ccccc3)N=C2C)ccc1OC(=O)c1ccco1	6.56%
COc1cc(NC(=O)CCc2c(C)[nH]c(=O)c(C#N)c2C)cc(OC)c1	15.7%
CCOC(=O)N1CCN(C(=O)c2ccc3c(=O)n(CCc4ccccc4)c(=S)[nH]c3c2)CC1	11.4%
COc1ccc(N2C(=O)NC(=O)C(CCc3ccncc3)(CCc3ccncc3)C2=O)cc1	-23.6%
CC(C)[C@H](N)C(=O)NC[C@H](CC(=O)NCC1CCC(C(=O)O)CC1)c1ccc(Cl)cc1.Cl (stereo partly shown)	17.4%
CCCCSc1nc2c(c(=O)[nH]c(=O)n2C)n1CCc1ccccc1	16.1%
Cc1ccsc1C(=O)NCCC(c1ccccc1)c1ccccc1	14.3%
O=C(O)CN1C(=O)/C(=C\c2cccc(OC(=O)c3ccco3)c2)SC1=S	0.715%
COC(=O)c1ccc2c(=O)n(CC3CCCO3)c(SCC(=O)NCCc3ccc(S(N)(=O)=O)cc3)nc2c1 (stereo not shown)	17.5%
O=C(Nc1nc2cc3c(cc2s1)OCCO3)c1cccc(N2C(=O)CCC2=O)c1	-18.3%
COc1cc(/C=N/NC(=O)c2ccncc2)ccc1OC(=O)c1ccco1	7.02%
COc1ccc(CN2CCNC(=O)C2CC(=O)N(C)Cc2cc(C)no2)cc1OC (stereo not shown)	8.98%
CCCCn1c(N)c(N(CC(C)C)C(=O)CCCn2c(=O)oc3ccccc32)c(=O)[nH]c1=O	-9.71%
COc1cccc(CNC(=O)C2(C)Oc3ccccc3NC2=O)c1 (stereo not shown)	5.34%
CSc1nc(N2CCOCC2)c2ccccc2n1	-4.05%
CC(=O)Nc1ccc(N2C(=O)CC(N3CC(C)OC(C)C3)C2=O)cc1 (stereo not shown)	11.2%
COc1cc(/C=N/NC(=O)c2cccnc2)ccc1OC(=O)c1cc(OC)c(OC)c(OC)c1	17.3%
O=C(CSc1nnc(-c2ccco2)o1)N1CCOCC1	-5.9%
CN1CCN(C(=O)C2CCCN(c3ncnc4c3nc3n4CCCCC3)C2)CC1 (stereo not shown)	1.36%

Structure (SMILES)	hERG current change (%, negative = inhibition) at 10uM
Cc1cc(OCC(=O)NCc2ccccn2)cc(C)c1Br	-69.4%
CCOc1ccc(N(C(=O)c2snc(C(N)=O)c2N)C(C(=O)NC2CCCC2)c2ccncc2)cc1 (stereo not shown)	21.2%
CCCCn1c(=N)n(CC(O)COc2cccc(C)c2)c2ccccc21.Cl (stereo not shown)	-72.6%
N#Cc1cccc(NC(=O)c2ccccc2C(=O)O)c1	2.3%
Cc1ccc(NC(=O)c2nc[nH]c2C(=O)N2CCOCC2)c(C(=O)c2ccccc2)c1	-14.7%
CC(=O)Nc1ccc(NC(=O)CSc2nnc(C)n2-c2ccccc2)cc1	26.1%
Cc1ccc(NCc2ccncc2)c(Br)c1.O=C(O)C(=O)O	16.1%
N#Cc1cc(-c2ccccc2)nnc1Oc1ccccc1Cl	7.52%
COc1ccc(CN2CCN(C(=O)Cc3ccccc3)CC2)cc1Br.O=C(O)C(=O)O	-1.42%
Nc1ccc(Oc2ccc([N+](=O)[O-])cc2[N+](=O)[O-])cc1	-37.7%
Cc1cc(C(=O)COc2cccc(-n3cnnn3)c2)c(C)n1-c1ccccc1	-8.98%
CCOc1ccccc1NC(=O)CCCn1cc([N+](=O)[O-])cn1	-13.8%
COc1ccc(C(=O)NCCCc2ccccc2)cc1OC	8.25%
Cl.OC(CN1CCOCC1)Cn1c2c(c3ccccc31)CCCC2 (stereo not shown)	-3.25%
CCN(Cc1ccccc1)C(=O)C(=O)c1cn(CC(=O)N2CCCC2)c2ccccc12	7.16%
CC1=CN2C(=NC(=O)CC2(C)C(=O)N(CC(=O)NC2CCCC2)Cc2ccc(Cl)cc2)C=C1 (stereo not shown)	6.53%
NC(=O)[C@H]1CC2(CC(c3cccc(NC(=O)COc4ccc(Cl)cc4)c3)=NO2)CN1C(=O)CC(c1ccccc1)c1ccccc1 (stereo partly shown)	4.79%
COc1ccccc1/C=C/CN1CCC(Oc2ccc(C(=O)N3CCCCC3)cc2)CC1	-44.6%
O=c1c2cccnc2n(-c2ccccc2)n1Cc1ccc(Cl)cc1	12.7%
CCc1ccc(C(C)NC(=O)c2ccc3c(c2)OCO3)cc1 (stereo not shown)	9.01%
CCN1CCN(c2ccc(NC(=O)c3ccc(Cl)c(N4CCCC4=O)c3)cc2)CC1	13.1%
CCCN(CC(=O)Nc1ccc(F)c(F)c1F)C(=O)c1cc([N+](=O)[O-])ccc1N1CCOCC1	-67.1%

Structure (SMILES)	hERG current change (%, negative = inhibition) at 10uM
Cc1ccc(S(=O)(=O)C(C)C(=O)c2ccc3c(c2)OCCO3)cc1 (stereo not shown)	-28.9%
CCOc1ccccc1N(C)C(=O)c1sc2ncn(CC(=O)N3CCCCC3C)c(=O)c2c1C (stereo not shown)	6.44%
Cn1c(Cl)c(/C=N/OC(=O)C(C)(C)C)c2ccccc21	9.27%
O=C(CN1C(=O)NC(Cc2c[nH]c3ccccc23)C1=O)Nc1ccc(F)c(F)c1F (stereo not shown)	-5.36%
Nc1ccc(C#Cc2ccc3sc4ccccc4c(=O)c3c2)cc1	7.9%
O=C(Nc1ccncc1)Nc1cccc(F)c1	9.86%
COc1cc(C(=O)O)c2c(c1C)OC(=O)c1c(C)cc(O)c(C=O)c1O2	21.3%
O=C(/C=C/c1ccoc1)c1ccccc1O	-30.9%
Cc1ccc2ccc3cccnc3c2n1	10.4%
CCc1ccccc1N(C(=O)CNC(=O)c1ccco1)C(C(=O)NC1CCCC1)c1cccnc1 (stereo not shown)	31.3%
CCOc1ccc(C(C)NC(=S)NC2CCCCC2)cc1 (stereo not shown)	17.2%
CCOc1ccc(CN(C)CC(=O)NCc2ccccc2)cc1	-76.1%
CC(=O)c1ccc(NC(=O)CCc2nc3sc4c(c3c(=O)[nH]2)CCCC4)cc1	8.92%
C/C(=N\N=C(N)N)c1ccc(C)c(C)c1	4.41%
Cn1cnnc1SCC(=O)N1CCN(C(=O)c2ccco2)CC1	11%
NC(=O)Cn1cc(C(=O)COc2ccccc2)c2ccccc21	-3.45%
O=C(/C=C/c1ccccc1Cl)Nc1ccc(-c2nnc3n2CCCCC3)cc1	-6.47%
CCOc1ccc(-n2nnc3c(=O)n(C/C=C/c4ccccc4)cnc32)cc1	16.2%
COc1cccc(C(=O)Nc2ccc(-c3nc4ccccc4o3)c(O)c2)c1	6.18%
